Consider 89 molecules from PubChem BioAssay AID463173 (ICCB-Longwood Screening Facility, Harvard Medical School, 2010).

Among all 52,000 compounds or so, about 4,300 (8.3%) were called active. Cut-off read from the data, not from the text of the source: active = survival mostly below about 52% (no sharp cut-off); inactive = mostly above about 56%. Some of the results follow.

This assay has as its system DeltatarO mutant. Nature of the assay: growth inhibition of S. aureus wild type versus tarO mutant, primary screen, teichoic acid synthesis inhibitors, RN4220, OD600 (AID 463173). The note with it: OD600, 18 h, active compounds read low, screened at 18.75 µg/mL (by protocol).
Consider `CCc1ccc(N2CCn3c2nc2c3c(=O)n(Cc3c(F)cccc3Cl)c(=O)n2C)cc1`, for which the survival was inactive: 87%.

In the case of `CCOC(=O)C1CCCN(S(=O)(=O)c2ccc(Cl)cc2)C1` (centres undefined), the survival is inactive: 95%. Consider `Cc1nnc2c(N3CCN(c4ccccc4)CC3)nc3ccc(C(=O)c4ccccc4)cc3n12`, for which the survival was inactive: 80%.

Consider `CN(C(=O)Nc1ccccc1)C12CC3CC(CC(C3)C1)C2`, for which the survival was inactive: 70%. As to `CC(=O)N(Cc1cccnc1)c1nc2c(C)cccc2s1`, the survival was inactive: 77%. In the case of `Cn1cc(-c2cc3n(n2)CCC(=O)N3CCCC(=O)Nc2ccc(F)cc2F)c2ccccc21`, the survival is inactive: 128%. Regarding `Cc1cc(C)cc(-n2ccnc2SCC(=O)Nc2ccc3c(c2)OCO3)c1`, the survival is inactive: 74%.

`Cc1cc2nc(-c3ccc(Br)cc3)cc(C(F)(F)F)n2n1`: the survival is active: 37%. `COc1cc(C(c2nnnn2C2CCCCC2)N2CCc3ccccc3C2)ccc1O` (centres undefined): the survival was inactive: 62%. Regarding `COc1ccc(CCn2c(=O)c3cccnc3n(CC(=O)Nc3cccc(C)c3)c2=O)cc1OC`, the survival was inactive: 81%.

For `CCOC(=O)C1CCN(C(=O)Cn2nc(C)n3c(cc4cc(C)ccc43)c2=O)CC1`, the survival was inactive: 84%. As to `COc1ccc(S(=O)(=O)NCc2ccc3c(c2)CCN3C(=O)c2ccc(C)cc2)cc1Cl`, the survival was inactive: 112%. On to `Cc1c(CNCCc2ccc(S(N)(=O)=O)cc2)c(C(=O)O)c(C)n1Cc1ccc(Cl)cc1`, for which the survival was inactive: 105%. For `CCCCOC(=O)c1ccc(Nc2nc3ccccc3c3nnc(C)n23)cc1`, the survival is active: 25%.

Take `CC(=NCc1cccnc1)c1c(C)[nH]n(-c2nc3ccccc3s2)c1=O`: the survival is inactive: 103%. As for `CCOc1ccc(/C=C(\C#N)C(=O)Nc2sc3c(c2C(=O)OC)C(C(=O)OC)CC3)cc1OC` (centres undefined), the survival is inactive: 60%. For the molecule `O=C(C1CC1)N1CCc2cc(Br)cc(S(=O)(=O)N3CCN(c4ccccc4)CC3)c21`, the survival was inactive: 68%.

As for `CCc1ccc(NS(=O)(=O)c2ccc(C(=O)N(C)C)s2)cc1`, the survival is inactive: 72%. In the case of `Cn1c(=O)c2sccc2n2c(CCC(=O)N3CCN(c4cccc(Cl)c4)CC3)nnc12`, the survival is inactive: 193%. Consider `O=C(CSc1nccn1Cc1ccc(F)cc1)Nc1ccc2c(c1)OCO2`, for which the survival is inactive: 113%. `Cc1ccc(CNC(=O)CN2C(=O)C3(SCC(=O)N3c3cc(C)cc(C)c3)c3ccccc32)cc1` (centres undefined): the survival is inactive: 91%.

Turning to `COc1ccc(N2CCN(C(=O)C3CCN(S(=O)(=O)Cc4ccccc4)CC3)CC2)cc1`, the survival was inactive: 78%. With `Cc1nc(-c2cccc(F)c2)sc1CCNC(=O)c1ccc(F)c(F)c1`, the survival was inactive: 77%.

Consider `CCOc1ccc(Nc2oc(-c3ccc(COc4ccccc4C)o3)nc2C#N)cc1`, for which the survival is inactive: 64%.

Take `CCC(C)NC(=O)C1CCN(c2ncccn2)CC1` (centres undefined): the survival is inactive: 95%. For `CN(C(=O)CSc1nc2ccccc2n1CC(=O)N(C)c1ccc(F)cc1)c1ccccc1` the value was inactive: 76%; for `COc1cc(NC(=O)c2cc(-c3ccc(Cl)c(Cl)c3)on2)cc(OC)c1OC`, inactive: 111%; for `Cc1ccc(Nc2nc(Nc3ccc(C)c(C)c3)nc(N3CCOCC3)n2)cc1C`, active: 34%.

Take `CCc1cccc(C)c1NC(=O)C1CCN(S(=O)(=O)Cc2ccccc2)CC1`: the survival is inactive: 84%.

In the case of `COc1cc(C(=O)N2CCN(c3ccc(Nc4ccccc4)nn3)CC2)cc(OC)c1OC`, the survival was inactive: 80%.

With `COc1ccc(N2CCN(CCCNC(=O)c3cc(Nc4ccccc4OC)nc4ccccc34)CC2)cc1`, the survival was inactive: 62%. In the case of `CC1CCCCN1S(=O)(=O)c1cc2c3c(c1)CC(=O)N3CCC2` (centres undefined), the survival is inactive: 101%. With `Cc1ccc(CNC(=O)CCCCn2c(=O)c3ccccc3n(Cc3ccc(C)cc3)c2=O)cc1`, the survival was inactive: 67%. For `CC(=O)Nc1ccc2[nH]c(C)cc(=O)c2c1` the value was inactive: 99%; for `CCCCSCCCNC(=O)c1cn(C)c2ccc(S(=O)(=O)N3CCCC3)cc2c1=O`, inactive: 76%; for `Cc1cc(C)cc(OCC(=O)N(Cc2ccc(Cl)cc2)CC2CCCO2)c1` (centres undefined), inactive: 76%. With `CCOC(=O)c1c(S(=O)(=O)N2CCC(C(=O)NCc3ccccc3OC)CC2)c(C)n(C)c1C`, the survival was inactive: 94%. For `O=C(NC1CCCC1)c1ccc2c(=O)n(Cc3ccccc3)c(SCc3ccccc3)nc2c1`, the survival is inactive: 92%.

Consider `Cc1ccc(-n2nc(C(=O)Nc3ccc(C)c(F)c3)c(=O)n(C)c2=O)cc1`, for which the survival is inactive: 77%. For `COc1ccc(-c2nc3ccc(C)cn3c2Nc2ccc3c(c2)OCO3)cc1` the value was inactive: 128%; for `Cc1oc(-c2cccc(Cl)c2)nc1CN1CCCC(C(=O)NCc2ccc(Cl)cc2)C1` (centres undefined), active: -1%; for `Cc1ccccc1CNC(=O)c1sc2ncnc(N(C)C3CCCCC3)c2c1C`, inactive: 69%.

Turning to `O=S(=O)(c1ccc2[nH]c3c(c2c1)CCCCC3)N1CCN(c2cccc(Cl)c2)CC1`, the survival was inactive: 94%. On to `CCNC(=O)CCSc1nc2cc(Cl)ccc2o1`, for which the survival was inactive: 85%. Turning to `CCOC(=O)c1oc2ccccc2c1NC(=O)CN1CCOCC1`, the survival is inactive: 92%. Regarding `CC1=C(C(=O)Nc2cccc(C(F)(F)F)c2)C2(CCCCC2)OC1=O`, the survival was inactive: 95%. With `Cc1cccc(NC(=O)c2sc(-n3nc(C)c(CCC(C)C)c3C)nc2C)c1C` the figure was inactive: 62%. Consider `COc1cc(OC)cc(C(=O)Nc2cccc(-c3cn4cccnc4n3)c2)c1`, for which the survival is inactive: 117%.

On to `O=C(Cn1c(=O)n(Cc2ccc(C(=O)NCc3ccccc3Cl)cc2)c(=O)c2ccccc21)Nc1ccc(F)c(Cl)c1`, for which the survival was inactive: 99%. Consider `COc1ccc(N2CC(NC(=O)COc3ccc4ccccc4c3)CC2=O)cc1` (centres undefined), for which the survival is inactive: 95%. With `O=C(Cn1c(-c2cccs2)cc2ccccc21)NCc1ccccc1Br`, the survival is inactive: 98%. For the molecule `COc1cccc(C(=O)Nc2ccccc2-c2nc3ccccc3s2)c1`, the survival was active: 33%. For the molecule `CN(C)S(=O)(=O)c1ccc2c(c1)N(CC(=O)N1CCN(c3ccccc3F)CC1)CCS2`, the survival is inactive: 119%.

Turning to `CCc1cccc(C)c1NC(=O)CN1C(=O)C2(SCC(=O)N2c2cc(C)cc(C)c2)c2ccccc21` (centres undefined), the survival is inactive: 90%. For the molecule `Cc1cccc(CNC(=O)CN2C(=O)CCCc3ccccc32)c1`, the survival is inactive: 91%.

On to `Cc1ccc(-c2nc(CS(=O)(=O)CC(=O)NCc3ccccc3Cl)c(C)o2)cc1`, for which the survival was inactive: 56%.

With `O=C(O)C(c1ccccc1)N1CCCC1` (centres undefined), the survival is inactive: 89%. For the molecule `CCOc1ccccc1NC(=O)CN1CCCN(Cc2cccc(Cl)c2)S1(=O)=O`, the survival was inactive: 96%. With `COc1cc(NC(=O)c2cccc(F)c2)ccc1NC(=O)c1cc2ccccc2o1` the figure was inactive: 56%; with `CC1CCC2(CC1)N=C(c1ccccc1)C(=O)N2CC(=O)Nc1ccc(F)c(Cl)c1` (centres undefined), inactive: 50%. With `CCOC(=O)c1cccc(NS(=O)(=O)c2cc3[nH]c(=O)c(=O)[nH]c3cc2C)c1`, the survival is inactive: 87%. For `Cc1nc2ncnn2c(C)c1CCC(=O)N1CCN(c2cccc(Cl)c2)CC1` the value was inactive: 86%; for `CCc1ccc(NC(=O)c2nnn(Cc3cccc(C(F)(F)F)c3)c2N)cc1`, inactive: 82%; for `COc1cccc(CNC(=O)c2ccc3c(c2)nc2n3CCCCC2)c1OC`, inactive: 61%. For `COc1cccc(CNC(=O)COCc2cc(-c3ccc4c(c3)OCO4)on2)c1` the value was active: 37%. Consider `CCCOc1ccc(NC(=O)CC2C(=O)N(c3ccc(C)cc3)C(=O)N2Cc2cccc(OC)c2)cc1` (centres undefined), for which the survival is active: 46%. With `Cc1ccc2c(c1C)NC(C(=O)O)C1CC=CC21` (centres undefined) the figure was inactive: 85%; with `COc1cc2[nH]c(=O)c(C(=O)NCCN3CCNCC3)c(O)c2cc1OC`, inactive: 67%. Take `O=c1c2cc3c(nc2ncn1Cc1ccc(Cl)cc1)CCCC3`: the survival was inactive: 95%. Regarding `CCOC(=O)C1CCN(c2c(C(=O)c3ccc(C)cc3)cnc3ccc(F)cc23)CC1`, the survival is active: 2%. For `O=C1NC2(CCCCC2)C(=O)N1c1ccc(C(F)(F)F)cc1` the value was inactive: 86%.

On to `COc1ccc(NC(=O)CN2C(=O)c3ccccc3Sc3ccc(C(=O)N4CCOCC4)cc32)c(OC)c1`, for which the survival is inactive: 87%. In the case of `CCN(CC)C(=O)Cn1cc(/C=C(\C#N)C(N)=O)c2ccccc21`, the survival is inactive: 87%. As to `Cc1ccc2c(c1)cc(CN(Cc1ccco1)C(=O)N(C)C)c1nnnn12`, the survival was inactive: 92%. With `CSc1ccc(CC2C(=O)Nc3ccccc32)cc1` (centres undefined), the survival is inactive: 77%. As for `O=C(Cc1ccccc1F)N1CCC(c2nc3c(nnn3Cc3ccc(F)cc3)c(=O)[nH]2)CC1`, the survival is inactive: 72%. Consider `O=C(CS(=O)(=O)c1cccc2nsnc12)Nc1cc(F)ccc1F`, for which the survival is inactive: 90%. For `CC(=O)/C=C(\C)Nc1ccccc1S` the value was inactive: 99%; for `CCc1ccc(NC(=O)C2=CC(c3ccc4c(c3)OCO4)=NS(=O)(=O)N2C)cc1`, inactive: 80%; for `COc1ccc(NC(=O)Nc2c[nH]c(=O)[nH]c2=O)c(OC)c1`, inactive: 94%.

Turning to `Cc1cccc(-n2c(C)nc3cc(C(=O)NC4CCCCCC4)ccc32)c1`, the survival is inactive: 99%.

With `CCOc1ccc(-c2nc(SCC(=O)NCCCOC)c(-c3ccccc3)[nH]2)cc1`, the survival was inactive: 121%. Turning to `CCn1c(CN2CCOCC2)nc2cc(NC(=O)c3ccc([N+](=O)[O-])cc3)ccc21`, the survival is inactive: 81%. On to `Cc1c(C(=O)N(Cc2ccc(Cl)cc2)CC2CCCO2)oc2ccc(F)cc12` (centres undefined), for which the survival is inactive: 68%. For the molecule `COc1ccccc1CNC(=O)CSc1ncc2c(n1)-c1cc(Cl)ccc1N(Cc1ccccc1)S2(=O)=O`, the survival was inactive: 80%. `CCC(C)(C)n1nnnc1C(c1ccccc1)N1CCc2ccccc2C1` (centres undefined): the survival is inactive: 79%. In the case of `COc1ccc(OC)c(CCNc2nc3ccccc3c3nc(-c4cccnc4)nn23)c1`, the survival is inactive: 112%. On to `Brc1ccc(-n2nc(-c3ccccc3)c3cnc4cc5c(cc4c32)OCO5)cc1`, for which the survival was inactive: 124%. Take `Cc1ccc2[nH]c(CSc3nnc(NC(=O)c4ccc(Cl)cc4)s3)cc(=O)c2c1`: the survival was inactive: 99%.
